From the supplement of paper PMC4967469
IC50 is the fitted dose that halves viability relative to control wells, and lower means more sensitive; fits outside the tested doses are given as limits. The AUC spans the tested range (256-fold, ending at the top dose) of the same fit; the more sensitive the line, the further below 1. For part of these data: A top dose marked as inferred is not printed in the source and was worked back from the curve model. For part of these data: Drugs with an entry number were screened twice under separate entries, and the two screens often disagree.

Tests used:
Assay in all cases: Viability of human cancer cell lines after 72 h of drug (GDSC screen)
Tamoxifen = compound: CC/C(=C(\c1ccccc1)c1ccc(OCCN(C)C)cc1)c1ccccc1 [Tamoxifen]; conditions: top dose 5 µM
Protocol: (§1)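 Human cancer cell lines in 384-well plates, medium with 10% serum, drug for 72 h over a 256-fold dose range (nine 2-fold or five 4-fold steps up to the top dose). Adherent lines were fixed and stained with the nucleic acid dye Syto60, suspension lines read with resazurin; signal relative to control wells, capped at 0 and 100%. One two-parameter sigmoid per drug and line, fitted in a mixed model over all curves with the slope shared within a line.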

VNLG/124 = compound: CCCC(=O)OCc1ccc(OC(=O)/C=C(C)/C=C/C=C(C)/C=C/C2=C(C)CCCC2(C)C)cc1 [VNLG/124]; conditions: top dose 5.12 µM; top dose inferred
Protocol: as §1

Elesclomol = compound: CN(NC(=O)CC(=O)NN(C)C(=S)c1ccccc1)C(=S)c1ccccc1 [Elesclomol]; conditions: top dose 0.2 µM; top dose inferred
Protocol: as §1

HG-5-88-01 = compound: COc1cc(N2CCC(C(N)=O)CC2)ccc1Nc1nc(N)c(Cl)c(Nc2ccccc2S(=O)(=O)C(C)C)n1 [HG-5-88-01]; conditions: top dose 10 µM; top dose inferred
Protocol: as §1

Bleomycin = compound: Cc1c(N)nc([C@H](CC(N)=O)NC[C@H](N)C(N)=O)nc1C(=O)N[C@H](C(=O)N[C@H](C)[C@@H](O)[C@H](C)C(=O)N[C@H](C(=O)NCCc1nc(-c2nc(C(=O)NCCC[S+](C)C)cs2)cs1)[C@@H](C)O)[C@@H](OC1OC(CO)C(O)C(O)C1OC1OC(CO)C(O)C(OC(N)=O)C1O)c1cnc[nH]1 [Bleomycin]
Protocol: as §1

Masitinib = compound: Cc1ccc(NC(=O)c2ccc(CN3CCN(C)CC3)cc2)cc1Nc1nc(-c2cccnc2)cs1 [Masitinib]; conditions: top dose 20 µM
Protocol: as §1

LAQ824 = compound: O=C(/C=C/c1ccc(CN(CCO)CCc2c[nH]c3ccccc23)cc1)NO [LAQ824]; conditions: top dose 1.024 µM; top dose inferred
Protocol: as §1

OSI-930 = compound: O=C(Nc1ccc(OC(F)(F)F)cc1)c1sccc1NCc1ccnc2ccccc12 [OSI-930]; conditions: top dose 10.24 µM
Protocol: as §1

BX-912 = compound: O=C(Nc1cccc(Nc2ncc(Br)c(NCCc3cnc[nH]3)n2)c1)N1CCCC1 [BX-912]; conditions: top dose 10.24 µM; top dose inferred
Protocol: as §1

NSC-87877 = compound: O=S(=O)(O)c1ccc2cc(N=Nc3cc(S(=O)(=O)O)c4cccnc4c3O)ccc2c1 [NSC-87877]; conditions: top dose 16 µM; top dose inferred
Protocol: as §1

[1] = top dose 50 µM, screen: GDSC drug entry 1378, top dose inferred
[2] = top dose 64 µM, screen: GDSC drug entry 190

Cell Line | AUC (Tamoxifen) | IC50 (Tamoxifen) | AUC (VNLG/124) | IC50 (VNLG/124) | AUC (Elesclomol) | IC50 (Elesclomol) | AUC (HG-5-88-01) | IC50 (HG-5-88-01) | AUC (Bleomycin; [1]) | IC50 (Bleomycin; [1]) | AUC (Bleomycin; [2]) | IC50 (Bleomycin; [2]) | AUC (Masitinib) | IC50 (Masitinib) | AUC (LAQ824) | IC50 (LAQ824) | AUC (OSI-930) | IC50 (OSI-930) | AUC (BX-912) | IC50 (BX-912) | AUC (NSC-87877) | IC50 (NSC-87877)
BE-13 (lymphoblastic leukaemia, suspension) | 0.974 | > 5 µM | 0.968 | > 5.12 µM | 0.874 | 0.173 µM | 0.918 | > 10 µM | 0.916 | > 50 µM | 0.246 | 0.79 µM | 0.783 | 7.86 µM | 0.36 | 0.027 µM | 0.894 | > 10.2 µM | 0.36 | 0.27 µM | 0.983 | > 16 µM
ES8 (Ewing sarcoma, adherent) | 0.983 | > 5 µM | 0.982 | > 5.12 µM | 0.184 | 0.00156 µM | 0.794 | 4.21 µM | 0.144 | 0.275 µM | 0.44 | 2.78 µM | 0.868 | 16 µM | 0.302 | 0.0186 µM | 0.951 | > 10.2 µM | – | – | 0.986 | > 16 µM
EoL-1-cell (haematopoietic neoplasm, suspension) | 0.934 | > 5 µM | 0.469 | 0.266 µM | 0.542 | 0.016 µM | 0.878 | 8.08 µM | 0.532 | 3.78 µM | 0.431 | 2.65 µM | 0.132 | 0.107 µM | 0.303 | 0.0194 µM | – | – | 0.188 | 0.0873 µM | 0.98 | > 16 µM
KMH-2 (thyroid, adherent) | 0.983 | > 5 µM | 0.98 | > 5.12 µM | 0.668 | 0.0347 µM | 0.847 | 6.19 µM | – | – | – | – | 0.885 | 17.8 µM | 0.347 | 0.0254 µM | 0.989 | > 10.2 µM | 0.867 | 7.58 µM | 0.99 | > 16 µM
NB1 (neuroblastoma, semi-adherent) | 0.963 | > 5 µM | 0.984 | > 5.12 µM | 0.302 | 0.00326 µM | 0.219 | 0.0851 µM | 0.856 | 47 µM | 0.69 | 14.5 µM | 0.702 | 4.94 µM | 0.478 | 0.0555 µM | 0.919 | > 10.2 µM | – | – | 0.983 | > 16 µM
NCI-H847 (small cell lung carcinoma, adherent) | 0.991 | > 5 µM | 0.962 | > 5.12 µM | 0.925 | > 0.2 µM | 0.949 | > 10 µM | 0.971 | > 50 µM | 0.971 | > 64 µM | 0.875 | 13.5 µM | 0.269 | 0.0164 µM | 0.884 | 7.44 µM | – | – | 0.989 | > 16 µM
